Source: publication PMC11117730 (2024)

What was measured:
[1] = target: anti-IL-17A-sST2 (mouse, UniProt P14719 27-332); experiment: SPR
[2] = target: anti-IL-17A; experiment: SPR
anti-IL-17A, sequence (Q16552 24-155): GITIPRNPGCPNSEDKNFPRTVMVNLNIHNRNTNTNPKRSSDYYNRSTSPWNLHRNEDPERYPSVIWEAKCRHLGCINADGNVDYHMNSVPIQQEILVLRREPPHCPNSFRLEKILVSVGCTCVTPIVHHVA

Kd [1]: 0.0213 nM
koff [1]: 1.77e-05 s⁻¹
Kd [2]: 0.027 nM
koff [2]: 2.32e-05 s⁻¹
B1: human IL-17A (protein)
chain: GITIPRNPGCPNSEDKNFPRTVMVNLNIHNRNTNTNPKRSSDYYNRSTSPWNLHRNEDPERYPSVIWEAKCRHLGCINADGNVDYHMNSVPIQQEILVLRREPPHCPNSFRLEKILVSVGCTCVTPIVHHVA
